Experimental data: paper PMC6919601, “Identification of Plasmodium dipeptidyl aminopeptidase allosteric inhibitors by high throughput screening” (PLoS ONE, 2019)
Screen size: about 110,000 compounds; about 230 (0.21%) showed an effect of 50% or more. The list shows a part of the results.

The compounds below were run against DPAP1 (Plasmodium falciparum, UniProt Q8IIJ9) (assay: primary screen, percent inhibition; read by cleavage of a fluorogenic dipeptide substrate; higher = more effect of the substance).
Sequence of DPAP1 (Q8IIJ9 whole entry, looked up): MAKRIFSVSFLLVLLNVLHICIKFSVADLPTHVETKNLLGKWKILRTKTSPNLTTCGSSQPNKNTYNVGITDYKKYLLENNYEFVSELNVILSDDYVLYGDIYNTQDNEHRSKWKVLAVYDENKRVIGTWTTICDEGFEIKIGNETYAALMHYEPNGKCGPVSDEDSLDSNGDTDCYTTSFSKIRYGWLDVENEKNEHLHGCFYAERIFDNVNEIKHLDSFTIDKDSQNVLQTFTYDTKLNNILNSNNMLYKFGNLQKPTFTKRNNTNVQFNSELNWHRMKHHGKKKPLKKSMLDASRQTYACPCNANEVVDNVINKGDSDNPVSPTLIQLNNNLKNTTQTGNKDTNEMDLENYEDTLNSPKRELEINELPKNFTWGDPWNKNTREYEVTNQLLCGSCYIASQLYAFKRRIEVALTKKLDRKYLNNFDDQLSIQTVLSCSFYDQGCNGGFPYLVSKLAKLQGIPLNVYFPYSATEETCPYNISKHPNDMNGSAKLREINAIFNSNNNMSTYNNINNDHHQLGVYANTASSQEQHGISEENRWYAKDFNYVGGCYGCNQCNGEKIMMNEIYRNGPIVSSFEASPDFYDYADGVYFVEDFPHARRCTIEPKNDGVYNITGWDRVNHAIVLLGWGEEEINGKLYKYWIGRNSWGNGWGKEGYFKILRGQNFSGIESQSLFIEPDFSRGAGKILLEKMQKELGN
Design: species or system P. falciparum D10 trophozoite lysates; single well
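Also: 30 min substrate incubation versus DMSO and 10 µM JCP410 controls.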

| SMILES | % Inhibition @ 10 uM |
| --- | --- |
| Cc1ccc2nc3c(cc(C(=O)NCc4ccccc4)c(=N)n3CC3CCCO3)c(=O)n2c1 (centres unmarked) | -1.47% |
| N/C(=C\C(=O)c1cccs1)C(F)(F)F | 4.38% |
| COc1ccc(OC2CCN(S(=O)(=O)c3ccc(OC)c(OC)c3)CC2)cc1 | -6.56% |
| CN(C)CCCN(C(=O)c1ccccc1)c1nc2ccc(F)cc2s1 | -4.61% |
| Cc1ccccc1-c1noc(CCC(=O)NC(C)(C)C)n1 | -3.12% |
| COc1cc(CNCc2cccs2)ccc1OCC(N)=O | 3.65% |
| O=C(CN1Cc2ccccc2C1=O)N1CCN(c2ccccn2)CC1 | -0.501% |
| COC(=O)c1c(-c2ccc(F)cc2)csc1N | 9.68% |
| CSc1ccc(/C=c2\sc3nc4ccccc4n3c2=O)cc1 | -3.14% |
| CCOC(=O)C1=C(C)NC(=O)CC1c1ccc(Cl)cc1Cl (centres unmarked) | 4.52% |
| CC(C)(C)c1ccc(OCCCN2CCCC2)cc1 | -8.01% |
| Cc1nnc(SCc2cccc(F)c2)c2cc3sccc3n12 | 3.08% |
| Cc1cc(-c2ccc(C)c(S(=O)(=O)Nc3ncccc3C)c2)on1 | -9.1% |
| CC(=O)C1=C(O)C(=O)N(CCc2c[nH]c3ccccc23)C1c1ccc(C(C)C)cc1 (centres unmarked) | 6.15% |
| CCN(CC)CCNC(=O)CCc1c(C)nc2c(c1C)c(=O)n(C)c(=O)n2C | 3.75% |
| CCOC(=O)N1CCC(NC(=O)CNS(=O)(=O)c2ccc(Br)s2)CC1 | -4.07% |
| COc1ccc(S(=O)(=O)N(CC(=O)NC(C)c2ccccc2)C2CCCCC2)cc1OC (centres unmarked) | -3.74% |
| O=C(Cn1c(=O)n(CCc2ccccc2)c(=O)c2sc3ccccc3c21)NC1CCCCC1 | -8.42% |
| CC(=O)c1cccc(NC(=O)C(Cc2ccc([N+](=O)[O-])cc2)N2C(=O)c3ccccc3C2=O)c1 (centres unmarked) | 1.44% |
| CC1C=CCC2C(=O)N(c3ccc(C(=O)O)cc3)C(=O)C12 (centres unmarked) | 1.67% |
| O=C1c2cccnc2C(=O)N1Cc1ccc(S(=O)(=O)Nc2c3c(nc4ccccc24)CCCC3)cc1 | 0.275% |

| SMILES | % Inhibition @ 10 uM |
| --- | --- |
| CC1=NN2C(=N)/C(=C\c3ccc(Sc4cccc5ccccc45)o3)C(=O)N=C2S1 | -1.28% |
| Cc1cccc(NC(=O)c2cc3ccccc3nc2C)c1 | -1.61% |
| CCc1ccccc1-n1c(C)cc(/C=C2\NC(=O)NC2=O)c1C | -3.92% |
| CCn1c(CCCNC(=O)COc2ccccc2)nc2ccccc21 | 4.14% |
| COc1cc(C2C(C#N)=C(N)Oc3[nH]nc(-c4ccccn4)c32)cc(OC)c1OC (centres unmarked) | 1.01% |
| O=C1C(Cl)=C(Nc2cccc(C(F)(F)F)c2)C(=O)N1c1ccccc1 | 0.777% |
| Cc1onc(-c2ccccc2)c1C(=O)NC(C)C1CC2CCC1C2 (centres unmarked) | -2.29% |
| Cc1ccc2c(n1)sc1c(N)ncnc12 | -4.8% |
| COc1ccc(OC)c(-n2cc3c(c2-c2ccc(Cl)cc2)c(=O)n(C)c(=O)n3C)c1 | 2.02% |
| Cc1ccc(C)c(S(=O)(=O)c2nnn3c2nc(N2CCC(C(N)=O)CC2)c2sccc23)c1 | -2.55% |
| O=C(C1CCCN(c2ncnc3onc(-c4ccc(F)cc4)c23)C1)N1CCN(c2ccccn2)CC1 (centres unmarked) | 5.89% |
| CC(O)CNc1ncnc2c1c(-c1ccccc1)cn2-c1ccc(Br)cc1 (centres unmarked) | 3.67% |
| COc1ccc(CN2CCN(Cc3cccnc3)CC2)c(OC)c1 | -2.82% |
| COc1ccc(S(=O)(=O)NCc2cn3cccc(C)c3n2)cc1OC | 0.00665% |
| Cc1noc(C)c1CSc1ncnc2sc3c(c12)CCC(C)C3 (centres unmarked) | 0.147% |
| Cc1ccc(/C=C(\NC(=O)c2ccccc2)C(=O)NC2CC2)o1 | 2.7% |
| CCOC(=O)/C(C#N)=C\c1cc(OCC)ccc1OCC | -4.58% |
| CCCCN(C)C(=O)Cn1nc(-c2ccc(Cl)cc2)ccc1=O | -1.79% |
| C=CCN(CC=C)c1nc(=O)c2sc3ccccc3c2s1 | -7.93% |
| Cn1c(CSc2nc3c(N)ncnc3[nH]2)nc2ccccc21 | 4.05% |
| CCCCNC(=O)C1c2ccccc2C(=O)N(C)C1c1c[nH]c2ccccc12 (centres unmarked) | -4.53% |

| SMILES | % Inhibition @ 10 uM |
| --- | --- |
| CCOc1ccc2nc(NC(=O)Cn3ncc4c3-c3cc(C)ccc3OC4)sc2c1 | 0.54% |
| COc1ccc(OC)c(S(=O)(=O)NCc2cn3c(C)csc3n2)c1 | -2.45% |
| CCn1ncc(C2=NOC(C(=O)NCc3ccc(OC)cc3)C2)c1C (centres unmarked) | -6.68% |
| Cc1ccc(C(=O)Nc2cc(S(N)(=O)=O)ccc2C)cc1 | 1.65% |
| Cc1cc(C)cc(NS(=O)(=O)c2ccc(NC(=O)c3cccs3)cc2)c1 | -2.19% |
| O=C1CCCC(=O)C1=C1NC2(CCCCCC2)Cc2ccccc21 | 2.7% |
| CC(C)=CCC12CN3CCN(CC(C3)C1=O)C2 | -0.0735% |
| Cc1nn(C(C)C(=O)NC2CCCCC2C)c(=O)c2cc3occc3n12 (centres unmarked) | 4.55% |
| CCOc1ccccc1-c1nc(CSc2nc3ncccc3o2)c(C)o1 | 4.75% |
| O=C(NCc1cccnc1)c1cc(Sc2ccccc2Cl)nc2ccccc12 | 10.3% |
| Cc1ccc(C2=N/C(=C\c3ccc(Cl)cc3)C(=O)O2)cc1 | 5.73% |
| Cc1cc(=O)n2nc(N3CCC(C(=O)NCCCN4CC(C)CC(C)C4)CC3)sc2n1 (centres unmarked) | 3% |
| CC(NC(=O)CSc1nc(O)c2ccccc2n1)c1ccccc1 (centres unmarked) | -2.8% |
| O=C(O)c1ccccc1NC1=C(Cl)C(=O)N(c2ccccc2Cl)C1=O | 3.72% |
| COC(=O)C1=C(C)NC(=O)CC1c1cccc(Oc2ccccc2)c1 (centres unmarked) | 3.82% |
| O=C(Nc1ccc(Nc2ccccc2)cc1)C1CCCC1 | 3.48% |
| CCCCCCNC(=O)c1[nH]ncc1[N+](=O)[O-] | -0.591% |
| COC(=O)C1=C(C)OC(N)=C(C#N)C1c1cc(CSc2nc3ccccc3s2)cs1 (centres unmarked) | 4.58% |
| O=C(C1CCCN1S(=O)(=O)c1cccc2nsnc12)N1CCn2c1nc1ccccc12 (centres unmarked) | 2.72% |
| Cc1c(C(=O)N2CCCC2)oc2c1-c1nn(CC(=O)NCCC3=CCCCC3)cc1CC2 | 7.19% |
